# Test results reported in a collection of fitness landscapes (doi:10.1016/j.celrep.2020.107928).
# Over roughly 81,000 sequences, “one-hybrid fitness for binding parS DNA” has its median near -0.17; the highest 2% begin near 0.51. Some of the results follow.
# B1: Caulobacter ParB omega fusion; a variant is named by its letters at X, in order, B8GW30 (parent)
# chain: MESVVVGEPGMSEGRRGLGRGLSALLGEVDAAPAQAPGEQLGGSREAPIEILQRNPDQPRRTFREEDLEDLSNSIREKGVLQPILVRPSPDTAGEYQIVAGERAWRAAQRAGLKTVPIMVRELDDLAVLEIGIIENVQRADLNVLEEALSYKVLMEKFERTQENIAQTIGKSXSHVANXMRLLXLPDEVQSYLVSGELTAXHARAIAAAADPVALAKQIIEGGLSVRETEALARKAPNLSAGKSKGGRPPRVKDTDTQALESDLSSVLGLDVSIDHRGSTGTLTITYATLEQLDDLCNRLTRGI
# Variants of: B1
# Assay: one-hybrid fitness for binding parS DNA (scaled: cognate 1, non-cognate 0); higher = stronger binding
# Conditions: with parS DNA site
# Outline: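 Values were rescaled so that cognate is 1 and non-cognate is 0. Each is a fitness, the log change in a variant's read ratio to wild type from Illumina reads of plasmids before and after selection, with three replicate libraries pooled and variants under 10 reads dropped. Selection of the Caulobacter ParB libraries, four specificity codons randomised, used E. coli USO with a HIS3 reporter, site 19 bp from the promoter, on M9-minus-histidine with 0.1 mM IPTG and 5 mM 3-AT for 48 hours at 37°C.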
row,Variant,one-hybrid fitness for binding parS DNA
1,TGYC,≤ 0.2
2,RNGF,≤ 0.2
3,DLLY,≤ 0.2
4,HTAH,≤ 0.2
5,RPSS,≤ 0.2
6,LSIG,≤ 0.2
7,DTWD,≤ 0.2
8,RNLW,≤ 0.2
9,SMHQ,≤ 0.2
10,PGER,≤ 0.2
11,MKAG,≤ 0.2
12,QLLA,≤ 0.2
13,RPAT,≤ 0.2
14,MLDL,≤ 0.2
15,PETI,≤ 0.2
16,EVLW,≤ 0.2
17,DQTY,≤ 0.2
18,MVEC,≤ 0.2
19,DESE,≤ 0.2
20,AQAA,≤ 0.2
21,QYRH,≤ 0.2
22,NDYD,≤ 0.2
23,HGAA,≤ 0.2
24,SHNH,≤ 0.2
25,RYLN,0.396

row,Variant,one-hybrid fitness for binding parS DNA
1,GRDK,≤ 0.2
2,HFNR,≤ 0.2
3,VAYA,≤ 0.2
4,WLAT,≤ 0.2
5,RHDP,≤ 0.2
6,SDSA,≤ 0.2
7,KIQG,≤ 0.2
8,LPCI,≤ 0.2
9,GDHS,≤ 0.2
10,DNTS,≤ 0.2
11,YMNS,≤ 0.2
12,RPAM,≤ 0.2
13,LKER,≤ 0.2
14,PLHI,≤ 0.2
15,RTFH,0.246
16,LICG,≤ 0.2
17,VIFT,≤ 0.2
18,QQMV,≤ 0.2
19,LEFR,≤ 0.2
20,PRSN,≤ 0.2
21,QMLE,≤ 0.2
22,RFAC,0.91
23,KRDM,≤ 0.2
24,EWQP,≤ 0.2
25,GRSG,≤ 0.2

row,Variant,one-hybrid fitness for binding parS DNA
1,HRTF,≤ 0.2
2,SITN,≤ 0.2
3,HPDW,≤ 0.2
4,IIHR,≤ 0.2
5,RVNR,≤ 0.2
6,SWDR,≤ 0.2
7,VVEP,≤ 0.2
8,GLTV,≤ 0.2
9,DQPG,≤ 0.2
10,RYPH,≤ 0.2
11,MNMT,≤ 0.2
12,RPAF,≤ 0.2
13,QSQG,≤ 0.2
14,ADQW,≤ 0.2
15,VRMF,≤ 0.2
16,SSEV,≤ 0.2
17,YTPF,≤ 0.2
18,HEYW,≤ 0.2
19,QGPC,≤ 0.2
20,INRY,≤ 0.2
21,KLHG,≤ 0.2
22,QFRI,≤ 0.2
23,RRRG,0.706
24,VMYY,≤ 0.2
25,SLNE,≤ 0.2

row,Variant,one-hybrid fitness for binding parS DNA
1,HIWV,≤ 0.2
2,IECR,≤ 0.2
3,PCIT,≤ 0.2
4,FSRF,≤ 0.2
5,QEHC,≤ 0.2
6,NHKI,≤ 0.2
7,VNYE,≤ 0.2
8,YVRM,≤ 0.2
9,DKHS,≤ 0.2
10,AIYN,≤ 0.2
11,LHPF,≤ 0.2
12,HPLC,≤ 0.2
13,DCYT,≤ 0.2
14,QCYC,≤ 0.2
15,RNPA,≤ 0.2
16,ERKK,≤ 0.2
17,LPQN,≤ 0.2
18,ENAW,≤ 0.2
19,CMHS,≤ 0.2
20,QPWG,≤ 0.2
21,VPML,≤ 0.2
22,DDQP,≤ 0.2
23,SNLG,≤ 0.2
